Source: paper PMC12136788
The other results are listed elsewhere or left out.

B1: chr4:63681588:63681589:-_ENSMUSG00000028364_ENSMUST00000107372|mus_mus|motif|central (ssRNA)
RNA: GGGAGUUCUACAGUCCGACGAUCGCUUGUGCCUGAUGAUUUUCUUGAGGACCCCACCUUCGGGAGUGAGGGCAAACAAAGCGGGAAAGAUGCCUGGCAGUAGCCAGGUCACGGCCCCCAUGGUGGAGGUUGGACUGGCUAGGUCAACAGAGGAUUGAGCAUCA
B2: 75440467_75440587_272_5pUTR_ENSMUSG00000029229_ENSMUST00000075452|mouse|control|control (ssRNA)
RNA: GGGAGUUCUACAGUCCGACGAUCGCCGUUGCCGCCGCCACCGCCGCCAUUACCGUGGGCAGGAACAACAACACAAUGUCAACAUCCGCCGGGGCCGCCACCCCCGCCAGCGCCGCCGCCCGCGCCAGCGCCGCCGCCGUCGCCCAACAGAGGAUUGAGCAUCA
B3: chr2:34708205:34708206:-_ENSMUSG00000026869_ENSMUST00000028225|mus_hu|FALSE|FALSE (ssRNA)
RNA: GGGAGUUCUACAGUCCGACGAUCUUCACUCAGGUAAGUUCUGAGCCUCAAAUAAUUUGGGUUCCCAAAGAUUUCUGCAAUUGUCUUGGAAUUGGCAAGUGCUUUCACUAGUUCAUAUUUGGCAUCCUUUGAAGCUUUGUCAUGCAACAGAGGAUUGAGCAUCA
B4: chr2:48026839:48026840:+_ENSG00000116062_ENST00000540021|hu_hu|hu_hu_hu_mus_False|78_108 (ssRNA)
RNA: GGGAGUUCUACAGUCCGACGAUCAUAGUGUGCCACUAGCGUCCUAAAUCUGGAACAAUGGCGAUCAUCCGAAAACUGGCCGAUGAAAAACUUGCCCAGUGAAGUGUCCACAAAGCAAACACCAUACACACGAGUGUGACCAGACAACAGAGGAUUGAGCAUCA
B5: chr2:232320318:232320319:-_ENSG00000115053_ENST00000322723|hu_hu|hu_hu_hu_mus_True|48_108 (ssRNA)
RNA: GGGAGUUCUACAGUCCGACGAUCACUGUUGAAGUCUACAAAACCAAACCCUUUGGAAGAACCAGUUUCCCGAUCAGUGACUAUUCUUGCCCGAACGGAGCCCUCAAAUGAUUCUUUUAAGGUCUCUUCAGUGGUAUCCUCAGACAACAGAGGAUUGAGCAUCA
B6: chr11:18536319:18536320:-_ENSG00000074319_ENST00000251968|perfect_dup|motif|central (ssRNA)
RNA: GGGAGUUCUACAGUCCGACGAUCUAGGUAGAUUUUCCCAUUUGCAUCCACAUGCUUUCCUGUUUUAAUAGUCAUUGAACGGGUAGGCUUAACAAAACAGAUAGGGGGGUUAUAUGGGUAUGUGUCCAGCAGCCACAGGCAUAUCAACAGAGGAUUGAGCAUCA

What follows are binders tested against T1, UNK ZnF1-3 (human, UniProt Q9C0B0 31-174) (assay: nsRBNS (natural sequence RNA bind-n-seq); RBNS binding buffer (assumed for nsRBNS): 25 mM Tris pH 7.5, 150 mM KCl, 3 mM MgCl2, 0.01% Triton X-100, 500 ug/ml BSA, 20 U/ml SUPERase-In, 4 C; UNK is unkempt and MSI1 is Musashi-1; names of the RNAs are library labels; protein concentration not given here; high values mean tight binding).
T1 sequence: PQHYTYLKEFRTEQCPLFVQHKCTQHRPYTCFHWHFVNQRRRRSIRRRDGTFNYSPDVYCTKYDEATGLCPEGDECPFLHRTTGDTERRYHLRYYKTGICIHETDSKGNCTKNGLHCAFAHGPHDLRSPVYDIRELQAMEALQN

Binder | binding signal [enrichment R]
B1 | 0.867
B2 | 0.72
B3 | 0.667
B4 | 1.22
B5 | 0.456
B6 | 0.798
